Measurements published in article PMC4336329 (PLoS ONE, 2015).
In all, about 310,000 compounds went through this assay and about 14,000 (4.5%) showed an effect of 50% or more. The effect is printed as a negative number. Some of the results follow.

target: human ether-à-go-go-related gene (hERG) potassium channel (human, UniProt Q12809); assay: primary screen, population patch clamp on CHO cells stably expressing hERG
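Note: peak tail current of the secondary pulse compared with the same well before compound.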

human ether-à-go-go-related gene (hERG) potassium channel, sequence (Q12809 whole entry, looked up): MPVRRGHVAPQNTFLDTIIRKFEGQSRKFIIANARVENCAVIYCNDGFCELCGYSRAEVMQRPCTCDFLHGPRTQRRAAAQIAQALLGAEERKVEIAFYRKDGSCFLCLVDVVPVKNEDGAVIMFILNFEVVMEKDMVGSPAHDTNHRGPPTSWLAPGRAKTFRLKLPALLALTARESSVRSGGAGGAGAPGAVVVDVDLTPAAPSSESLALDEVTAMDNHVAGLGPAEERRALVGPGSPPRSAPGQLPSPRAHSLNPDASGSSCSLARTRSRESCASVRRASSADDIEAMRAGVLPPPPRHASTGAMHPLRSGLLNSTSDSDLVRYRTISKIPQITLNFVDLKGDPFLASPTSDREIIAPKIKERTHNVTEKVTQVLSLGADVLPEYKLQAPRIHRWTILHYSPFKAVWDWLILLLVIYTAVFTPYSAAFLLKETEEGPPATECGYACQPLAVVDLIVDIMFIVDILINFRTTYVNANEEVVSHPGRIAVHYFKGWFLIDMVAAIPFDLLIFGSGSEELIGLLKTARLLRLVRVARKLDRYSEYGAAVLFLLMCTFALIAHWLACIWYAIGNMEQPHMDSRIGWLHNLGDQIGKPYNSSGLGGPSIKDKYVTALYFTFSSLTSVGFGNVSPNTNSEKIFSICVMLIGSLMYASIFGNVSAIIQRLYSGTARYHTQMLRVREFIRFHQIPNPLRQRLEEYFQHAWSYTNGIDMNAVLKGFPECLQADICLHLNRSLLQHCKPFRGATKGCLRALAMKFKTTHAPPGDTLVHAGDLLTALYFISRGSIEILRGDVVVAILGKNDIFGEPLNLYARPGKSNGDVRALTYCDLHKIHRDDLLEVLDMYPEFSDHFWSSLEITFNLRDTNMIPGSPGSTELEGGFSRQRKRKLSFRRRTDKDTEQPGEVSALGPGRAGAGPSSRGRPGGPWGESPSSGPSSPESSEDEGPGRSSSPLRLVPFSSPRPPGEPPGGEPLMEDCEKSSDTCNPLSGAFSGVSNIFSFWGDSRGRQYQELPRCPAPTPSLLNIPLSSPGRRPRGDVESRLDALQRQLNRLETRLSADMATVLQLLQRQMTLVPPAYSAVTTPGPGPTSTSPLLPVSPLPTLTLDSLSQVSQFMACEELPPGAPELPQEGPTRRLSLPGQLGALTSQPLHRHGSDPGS

Structure (SMILES) | hERG current change (%, negative = inhibition) at 10uM [%]
CCCS(=O)(=O)N1CCN(CC2CC=CCC2)CC1.O=C(O)C(=O)O (centres unmarked) | -6.27
CC1=NN(Cc2ccccc2)C(=O)C1 | -0.313
Cn1c(-c2ccccc2)cc2c3no[n+]([O-])c3ccc21 | 12.9
Cc1ccn2c(C(=O)N/N=C\c3ccc4c(c3)OCO4)c(C)nc2c1 | -17.9
CCOc1ccc2[nH]c(=O)c(C(c3nnnn3Cc3ccco3)N3CCC(C)CC3)cc2c1 (centres unmarked) | -11.2
O=C(CSc1nc2cccnc2n1Cc1ccccc1)NCc1ccco1 | -37.4
CC(C)NC(=O)CN(C(=O)CCC(=O)Nc1nccs1)c1ccc(C(C)C)cc1 | 5.56
COc1cc(OC)c(NC(=O)CCCNC(=O)Cn2cnc3sc(C)c(C)c3c2=O)cc1Cl | 9.77
N#CC[C@H](Cc1ccccc1)N1CC[C@@H](NC(=O)OCc2ccccc2)CCC1=O | -45.1
Cc1cc(C)c(S(C)(=O)=O)c(Oc2ccc(F)cc2)n1 | 8.08
COc1ccc(-n2c(O)c(C(C)=Nc3ccc4c(c3)CCC4)c(=O)[nH]c2=O)cc1 | -8.87
CN(CC(=O)N1CC(=O)N(CCc2ccccc2)C(=O)C1)S(=O)(=O)c1cccc2nsnc12 | -35.4
Cc1ccc(-n2ncc(C(=O)N3CCc4ccccc4C3)c2NC(=O)c2ccco2)cc1C | -0.542
NC(=O)C1CCN(CC(=O)Nc2cccnc2Cl)CC1 | 19.4
COc1ccc(OC)c(NC(=O)c2cc(-c3cc(C)cc(C)c3O)n[nH]2)c1 | 12.3
O=C1CC(N2CCN(c3ccccc3F)CC2)C(=O)N1c1ccc(F)cc1 (centres unmarked) | -3.16
CCCCOC(=O)C1[C@H]2C(=O)N(c3ccccc3CC)C[C@]23C=C[C@H]1O3 (some centres unmarked) | 5.13
c1ccc(C2c3c(ccc4ccccc34)Oc3ncn4nc(-c5ccco5)nc4c32)cc1 (centres unmarked) | -4.31
COc1cccc(NC(=O)c2ocnc2C)c1 | 5.26
O=C(CN1C(=O)NC2(CCCCC2)C1=O)N1CCN(S(=O)(=O)/C=C/c2ccccc2)CC1 | -4.49
CCOc1ccc(Nc2nc(NCCN3CCOCC3)nc(OC)n2)cc1 | -63.8
O=C(c1cccc(-n2cccc2)c1)N1CCN(S(=O)(=O)c2c(F)cccc2F)CC1 | -21.6

Structure (SMILES) | hERG current change (%, negative = inhibition) at 10uM [%]
CCOC(=O)CN1C(=O)C(O)(C2CCc3ccccc3C2=O)c2ccccc21 (centres unmarked) | -3.02
Cc1ccc(NS(=O)(=O)c2cc3c4c(cccc4c2)C(=O)NC3=O)cc1 | 14.7
COCc1[nH]nc2c1C1(CCSCC1)C(C#N)=C(N)O2 | 5.33
CCOc1cccc(C(=O)NC(=S)Nc2ccccc2)c1 | 12.6
CCOc1ccc(C(CC(=O)O)NC(=O)Cc2ccccc2)cc1OC (centres unmarked) | 18.7
Cc1ccc(CN2C(=O)CCC2C(=O)NCc2cccnc2)cc1 (centres unmarked) | 5.44
COc1cccc(Oc2ccc(C(F)(F)F)cc2NC(=O)C2=COCCO2)c1 | -1.2
COc1ccc(-c2noc(CCCOc3ccccc3)n2)cc1OC | -9.71
CCCc1cc2nnc(SCC(=O)N(C)C3CCCCC3)n2c(N)n1 | -21.9
Cc1cc(=O)n2nc(N3CCC(C(=O)N4CCN(c5ccccc5)CC4)CC3)sc2n1 | -11.9
O=C(O)c1cccc(N2C(=O)c3cc4cccc(Br)c4cc3C2=O)c1 | 18.4
CCN(CC)S(=O)(=O)c1ccc(Cl)c(C(=O)Nc2cc(C)nn2-c2ccccc2)c1 | -26.3
Clc1ccccc1CSc1nnc(Cn2cnc3ccccc32)n1-c1ccccc1 | -42.7
COC(=O)NCC(c1cccnc1)N1CCN(c2ccccc2OC)CC1 (centres unmarked) | 6.42
CC(=O)Nc1cc(C(=O)OCC(=O)c2ccc(C)cc2)ccc1C | 3.03
Cc1nn(C)cc1C(C)NC(=O)c1cc(COc2c(F)cccc2F)on1 (centres unmarked) | 13.2
CCCOc1ccc(-c2nc3c(c(=O)[nH]c(=O)n3Cc3ccccc3)n2CCO)cc1OCC | -5.86
Cc1nnc(SCCC#N)n(CCC#N)c1=O | -1.84
COc1ccc(CNC(=O)C(c2ccco2)N(C(=O)Cc2cccs2)c2cccnc2)cc1 (centres unmarked) | -28.9
CCn1ncc(/C=C/C(=O)C2CC2)c1C | 31.7
O=C(Nc1ccc2ncccc2c1)c1cccc(Br)c1 | 9.51
COc1cccc(NC(=O)Cn2c3ccccc3c3nc4n(c(=O)c32)CCCS4)c1 | 5.3
